These results are taken from article PMC4336329 (PLoS ONE, 2015).

Structures are written as SMILES. Among all 310,000 compounds or so, about 14,000 (4.5%) showed an effect of 50% or more. The effect is printed as a negative number. Some of the results follow.
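Also: peak tail current of the secondary pulse compared with the same well before compound.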

The target of the test is human ether-à-go-go-related gene (hERG) potassium channel (human, UniProt Q12809). Nature of the test: primary screen, population patch clamp on CHO cells stably expressing hERG.
human ether-à-go-go-related gene (hERG) potassium channel, sequence (Q12809 whole entry, looked up): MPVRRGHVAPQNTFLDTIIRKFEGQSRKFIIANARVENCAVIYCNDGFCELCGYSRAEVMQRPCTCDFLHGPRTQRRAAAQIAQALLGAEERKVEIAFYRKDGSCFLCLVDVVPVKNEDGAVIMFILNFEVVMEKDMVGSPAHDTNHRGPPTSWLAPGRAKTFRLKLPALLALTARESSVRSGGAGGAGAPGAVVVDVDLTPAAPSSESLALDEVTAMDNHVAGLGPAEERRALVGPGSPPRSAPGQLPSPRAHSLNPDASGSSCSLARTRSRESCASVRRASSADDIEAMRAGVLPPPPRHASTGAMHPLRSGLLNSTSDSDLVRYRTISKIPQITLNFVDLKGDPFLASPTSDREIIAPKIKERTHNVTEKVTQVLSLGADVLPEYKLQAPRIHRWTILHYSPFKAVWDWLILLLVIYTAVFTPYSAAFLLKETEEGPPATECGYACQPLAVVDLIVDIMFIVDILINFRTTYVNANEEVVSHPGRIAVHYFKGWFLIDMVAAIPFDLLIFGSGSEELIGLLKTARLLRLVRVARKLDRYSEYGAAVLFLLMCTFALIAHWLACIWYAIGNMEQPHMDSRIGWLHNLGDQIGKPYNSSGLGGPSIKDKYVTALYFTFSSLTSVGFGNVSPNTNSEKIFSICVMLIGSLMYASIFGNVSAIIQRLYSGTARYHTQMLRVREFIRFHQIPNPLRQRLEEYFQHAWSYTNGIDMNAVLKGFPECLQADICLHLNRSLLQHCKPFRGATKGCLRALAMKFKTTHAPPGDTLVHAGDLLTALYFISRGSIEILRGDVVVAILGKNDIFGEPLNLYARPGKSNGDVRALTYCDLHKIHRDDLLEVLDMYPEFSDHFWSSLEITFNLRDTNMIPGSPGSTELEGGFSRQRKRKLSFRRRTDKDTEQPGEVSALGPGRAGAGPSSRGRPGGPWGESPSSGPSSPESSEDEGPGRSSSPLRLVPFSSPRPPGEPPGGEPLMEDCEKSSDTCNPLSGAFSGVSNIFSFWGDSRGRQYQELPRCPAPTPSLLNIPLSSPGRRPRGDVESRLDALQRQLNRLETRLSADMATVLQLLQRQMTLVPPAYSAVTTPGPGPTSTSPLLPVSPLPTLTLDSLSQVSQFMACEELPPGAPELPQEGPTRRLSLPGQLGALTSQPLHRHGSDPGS
With `CCOCCCn1c(=NC(C)=O)c(C#N)cc2c(=O)n3ccccc3nc21`, the “hERG current change (%, negative = inhibition) at 10uM” value is on record as -15.4%.

Regarding `Cc1ccccc1NC(=O)C(C)OC(=O)C1CC(=O)N(Cc2ccco2)C1` (stereo not drawn), the “hERG current change (%, negative = inhibition) at 10uM” value worked out at 9.65%. Turning to `Cc1ccc(-c2noc(CCCC(=O)NCC3CCCO3)n2)cc1` (stereo not drawn), the “hERG current change (%, negative = inhibition) at 10uM” value is listed as 20.3%. For `O=C(c1ccc(F)cc1)N1CCC2(CC1)NCCc1[nH]cnc12`, the “hERG current change (%, negative = inhibition) at 10uM” value is recorded as 4.43%. For `CC(C)(C)N/N=C/c1c(O)n(-c2ccc(Cl)cn2)c(=O)c2ccccc12` the value was 1.43%. For `Cc1ccc(Cl)cc1NC(=O)C(=O)N/N=C/c1ccc2c(c1)OCO2` the value was 15.2%; for `COC(=O)c1cc(C)nc2c1c(C)nn2-c1ccccc1`, 4.4%. As for `O=C(/C=C/c1ccco1)Nc1scc(-c2ccccc2)c1C(=O)O`, the “hERG current change (%, negative = inhibition) at 10uM” value was 10.5%. `CCS(=O)(=O)c1c([N+](=O)[O-])ncn1C`: the “hERG current change (%, negative = inhibition) at 10uM” value is recorded as -3.8%. For `Cc1c(/C=N/NC(=O)c2cccnc2)c2ccccn2c1C(=O)c1ccc(F)cc1` the value was -2.38%. For `Cc1ccc(-c2nc3ccccc3nc2NN)cc1` the value was 9.04%; for `COc1ccccc1CN1C[C@@H]2C[C@@H](C3=Cc4cccc(OC)c4OC3)N3CCC[C@@]23C1=O`, 13.8%. Turning to `Cc1ccc(NC(=O)CCc2nnc3ccc(NCc4ccco4)nn23)nc1`, the “hERG current change (%, negative = inhibition) at 10uM” value was 9.47%. For `CCN(CC(=O)Nc1c(F)cccc1F)C(=O)CC1CCCCC1` the value was -4.29%.

On to `Cc1occc1C(=O)NC(C)CCc1ccccc1` (stereo not drawn), for which the “hERG current change (%, negative = inhibition) at 10uM” value is reported as -1.22%. With `CC(=O)Nc1sc2c(c1C#N)CC(C)(C)NC2(C)C` the figure was 3.1%; with `C/C(=N/NC(=O)CNC(=O)Cc1ccccc1)c1ccc(Cl)cc1`, 5.97%; with `COc1ccccc1CNC(=O)C1CCN(S(=O)(=O)c2ccc3nc4c(c(C(=O)O)c3c2)CCCC4)CC1`, 23.2%.

Regarding `O=C(NCCCc1ccccc1)c1cccc(Br)c1`, the “hERG current change (%, negative = inhibition) at 10uM” value was -27%. With `Cc1cc(C(C)(C)C)cc(S(=O)(=O)Nc2ccc(O)c(C(=O)O)c2)c1C` the figure was -4.48%. For `COc1ccc(NC(=O)CCC(=O)Nc2nnc(C(C)C)s2)cc1Cl` the value was 19.2%; for `CCN(CC)Cc1c(O)ccc2occ(C(=O)c3ccc(OC)cc3)c12`, -74.2%.

As to `COc1cccc(NC(=O)COc2cc(C)cc3oc(=O)cc(C)c23)c1`, the “hERG current change (%, negative = inhibition) at 10uM” value stood at 5.18%. For `CN(C(=O)c1ccccc1[N+](=O)[O-])c1ccccc1C(=O)NCc1ccccc1` the value was -7.21%; for `CC(=O)c1cccc(N(C(=O)CNC(=O)c2ccco2)C(C(=O)NCc2ccco2)c2ccccc2)c1` (stereo not drawn), -17.3%. For `Cc1nc(SC2CC(=O)N(c3ccccc3)C2=O)nc2c1CCCC2` (stereo not drawn) the value was -3.22%; for `O=C1C2C3c4ccccc4C(c4ccccc43)[C@@H]2c2nc3ccccc3n21` (stereo partly drawn), 7.52%; for `CCN(CC)CCCNC(=O)c1cc(Nc2ccc(OC)cc2OC)nc2ccccc12`, -36.1%. For `O=C(Nc1cccc(NC(=O)c2ccco2)c1)c1ccc([N+](=O)[O-])cc1` the value was -18.8%; for `Cc1ccc([N+](=O)[O-])cc1NC(=O)C(Sc1ccccc1)c1ccccc1` (stereo not drawn), 8.52%; for `O=C(Nc1cc(S(=O)(=O)N2CCOCC2)ccc1N1CCOCC1)c1cccc(S(=O)(=O)N2CCCCC2)c1`, -17.5%.

In the case of `COc1ccc(OC)c2c1CC(C)(C)NC2=O`, the “hERG current change (%, negative = inhibition) at 10uM” value is reported as 9.67%.

Turning to `Clc1ccc(CN2CCC(Cc3ccccc3)CC2)cc1`, the “hERG current change (%, negative = inhibition) at 10uM” value is recorded as -40.9%. Consider `CN(C)S(=O)(=O)c1cccc(NC(=S)N/N=C/c2cc(Br)ccc2O)c1`, for which the “hERG current change (%, negative = inhibition) at 10uM” value turned out to be 9.82%. As for `C/C(=N\N1CCN(Cc2ccccc2Cl)CC1)c1ccc(F)cc1`, the “hERG current change (%, negative = inhibition) at 10uM” value stood at 2.05%. For `C/C(CC(=O)NC(C)c1ccccc1)=N\NC(N)=S` (stereo not drawn) the value was 5.65%. With `Cn1nccc1C(=O)N/N=C/c1cccnc1` the figure was -14.8%. For `O=c1oc2ccc(Cl)cc2cc1-c1nnc(Nc2cccc(C(F)(F)F)c2)s1` the value was 18.3%; for `Cc1ccc(-c2nnc(Oc3cccc(C)c3)c3ccccc23)cc1`, 0.359%; for `COCCNC(=O)/C(C#N)=C/c1c(N2CCCCCC2)nc2c(C)cccn2c1=O`, 4.39%. Consider `CCN(CCN(C)C)C(=O)Cn1ncc2c1-c1cc(C)ccc1OC2`, for which the “hERG current change (%, negative = inhibition) at 10uM” value was -15.7%.

As to `CCc1nc(SCC(=O)NCc2ccco2)c2c(=O)n(C)c(=O)n(C)c2n1`, the “hERG current change (%, negative = inhibition) at 10uM” value is -0.832%.

`Cc1ccc(S(=O)(=O)Nc2ccc(C(=O)N3CCCC3)cc2)cc1`: the “hERG current change (%, negative = inhibition) at 10uM” value is -0.474%. With `Cc1cc(C)c(C2=CC(=O)C[C@H](c3ccc4c(c3)OCO4)C2)c(C)c1` the figure was 18.2%; with `CCOc1ccc(C(=O)Nc2ccc(Cl)cn2)cc1Cl`, 2.73%; with `CCCCN1C[C@H](O)[C@@H](O)[C@H](O)[C@H]1CO.Cl`, 9.61%. With `COc1ccc(C(C(=O)NC2CCCCC2)N(C(=O)CCl)c2ccccc2Cl)cc1` (stereo not drawn) the figure was 0.594%; with `CCNc1nc(NCC)nc(C(=O)NN)n1`, -1.56%; with `COc1ccc(Br)cc1CNC(=O)C1CCC(=O)N1C(C)C` (stereo not drawn), -10.1%. With `O=C(NNC(=O)c1cc(Br)ccc1O)c1csc(N2CCOCC2)n1`, the “hERG current change (%, negative = inhibition) at 10uM” value is given as -3.37%.

In the case of `Cc1cc(C(=O)OCC(=O)NCc2ccc(Cl)cc2)c(C)o1`, the “hERG current change (%, negative = inhibition) at 10uM” value is -16.1%.

As to `CCn1c(SCC(=O)Nc2ccc(NC(=O)c3cccs3)cc2)nnc1-c1cccnc1`, the “hERG current change (%, negative = inhibition) at 10uM” value came out at 4.35%. For `CCOC(=O)c1sc2nc(CC(=O)OC)nc(NCCN(CC)CC)c2c1C` the value was -62.7%; for `CCOC(=O)c1ccc(NC(=O)c2nc[nH]c2C(=O)N(CC)CC)cc1`, -5.56%; for `O=C1N=C(N2CCOCC2)SC1=C1CCCCC1`, -1.33%. With `CC1CN(C(=O)c2cc(COc3c(F)cccc3F)on2)CCN1C` (stereo not drawn) the figure was 9.07%. For `CN(Cc1ccno1)Cc1cn(Cc2ccccc2)nc1-c1ccc2c(c1)OCO2` the value was -35.4%; for `CCn1c(SCC(=O)N2CCCCC2)nc(O)cc1=O`, -7.46%; for `CC(C)(C)n1nc2c(c1NC(=O)COc1ccc(Cl)cc1)CS(=O)(=O)C2`, -46.5%. Consider `C=CCN(CC=C)Cc1c(C)[nH]c2ccc(C(=O)OCC)cc2c1=O`, for which the “hERG current change (%, negative = inhibition) at 10uM” value is on record as -20%. With `CC1(C)CC(=O)c2sc(NC(=O)c3ccco3)nc2C1` the figure was 7.16%; with `CCCc1cc(C(=O)Cc2nc3ccccc3s2)c(O)cc1O`, -24%. For `CCOc1ccc(N2C(=O)NC(=O)/C(=C\c3ccc(N4CCOCC4)cc3C)C2=O)cc1` the value was 4.46%; for `CC[n+]1c(/C=C2\C=C(C)CC(C)(C)C2)sc2ccccc21.[I-]`, -39.7%; for `CCOC(=O)c1c(NC(=O)C(C)N2CCN(S(=O)(=O)c3cccs3)CC2)sc2c1CCC(C)C2` (stereo not drawn), 6.72%.

As for `CC(=O)Nc1ccc(NC(=S)NC(=O)c2oc3ccccc3c2C)cc1`, the “hERG current change (%, negative = inhibition) at 10uM” value stood at 10.7%.

As for `COc1cccc(NC(=O)CNC(=O)Cn2cnc3sc(C)c(C)c3c2=O)c1`, the “hERG current change (%, negative = inhibition) at 10uM” value was 1.97%. Turning to `CC(C)NC(=O)CCn1nc(-c2ccc(Cl)cc2)c2ccccc2c1=O`, the “hERG current change (%, negative = inhibition) at 10uM” value is given as 1.72%. For `CN1CCN(C(=O)c2ccc3c(=O)n(Cc4ccc(Cl)cc4)c(=S)[nH]c3c2)CC1` the value was -7.38%; for `CCN(C(=O)c1cc([N+](=O)[O-])ccc1NCc1cccnc1)c1ccccc1`, -19.8%; for `Nc1ccc(C(O)(C(F)(F)F)C(F)(F)F)cc1`, 1.55%. With `CC(=O)Nc1ccc(S(=O)(=O)NCCC(=O)OCc2ccc([N+](=O)[O-])cc2)cc1` the figure was -57.4%. `CC12CC3CC(C)(C1)CC(N)(C3)C2.Cl`: the “hERG current change (%, negative = inhibition) at 10uM” value came to 32.7%. For `Cc1cc(C)n(CC(O)CN(c2ccccc2)S(=O)(=O)c2ccccc2)n1` (stereo not drawn) the value was 7.17%; for `Cc1csc(NC(=O)CSc2nnc(-c3ccc(S(=O)(=O)N4CCCC4)cc3)o2)n1`, -9.6%.

On to `CC1CCN(C(=O)CN2C(=O)c3ccccc3S2(=O)=O)CC1`, for which the “hERG current change (%, negative = inhibition) at 10uM” value worked out at 7.06%. As for `O=C(Nc1ncccc1O)c1cccc(S(=O)(=O)NCc2ccccc2)c1`, the “hERG current change (%, negative = inhibition) at 10uM” value is -20.3%. With `COC(=O)CC(c1ccc(F)cc1)n1c(C)ccc1C` (stereo not drawn) the figure was 8.06%; with `CCN1CCN(S(=O)(=O)c2ccc(OC)c(NC(=O)c3ccccc3F)c2)CC1`, -30.8%. With `O=C1CCN(Cc2ccc(O)cc2)CCN1CCO` the figure was -46.9%. With `COc1cc(C)nc(N2CCCC(C(=O)Nc3cccc(Cl)c3Cl)C2)n1` (stereo not drawn) the figure was 9.03%.

On to `CCOc1ccccc1NC(=O)CCS(=O)(=O)c1ccc2c(c1)CC(C)N2C(C)=O` (stereo not drawn), for which the “hERG current change (%, negative = inhibition) at 10uM” value is listed as 8.27%. With `O=C(c1cccc(F)c1)N1CCC2(CC1)NCCc1[nH]cnc12` the figure was 6.92%.

On to `COc1ccc(S(=O)(=O)NCc2ccccc2)cc1Br`, for which the “hERG current change (%, negative = inhibition) at 10uM” value is on record as 6.25%. With `Oc1ccc(Nc2nc3ccccc3nc2Nc2ccc(O)cc2)cc1` the figure was 19.4%. With `COc1cn(-c2ccccc2)nc1C(=O)NCc1ccc(C)cc1` the figure was 12.6%; with `COc1ccccc1C(=O)NCCCNC(=O)c1ccccn1`, 13.5%.
